{"source": "PubChem BioAssay AID1345083", "about": "(National Center for Advancing Translational Sciences (NCATS), 2018)", "note": "Among all 94,000 compounds or so, about 6,200 (6.6%) were called active. This list was built around the results that the source calls inconclusive (neither active nor inactive); the mix of calls is not that of the screen. The call rests on the fitted dose curve; in most records, active means well fitted inhibition curve with a large enough effect; inconclusive means small, poorly fitted or top-dose-only effect; inactive means flat fitted curve, though single readings scatter. A potency beside an inconclusive call is a rough fit, not a confirmed value. Potency means the concentration at half of the fitted maximal effect; tags describe the fitted curve by direction and shape."}
{"experiment": "Cytotoxic Profiling in HEK 293 Cell Line of Diverse Libraries Using Quantitative High-Throughput Screening; further: nearly all actives have a fitted effect of over 60% in size", "details": "HEK 293 viability, ATP luminescence (CellTiter-Glo), 48-72 h; series mostly up to 115 µM", "how_it_was_run": "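qHTS cytotoxicity; HEK 293, 250 cells/well; compound pinned; 48 or 72 hr, 37 degree Celsius, 5% CO2, 95% humidity; CellTiter-Glo, 10 min RT; luminescence (ATP).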"}
{"smiles": "O=C(NC1CCCCC1)N1CCC(Oc2ccc(-c3noc(C4CC4)n3)cc2)C1", "note": "(configuration not stated)", "Potency": "inconclusive: 25.1 µM [inhibitor, partial curve, poor fit]"}
{"smiles": "O=C(NCc1ccc(F)c(Cl)c1)c1cc2n(n1)CC(c1ccc(Cl)cc1)OC2", "note": "(configuration not stated)", "Potency": "active: 35.5 µM"}
{"smiles": "Cc1ccc(Nc2ccnc(N3CCCC(C(=O)N4CCOCC4)C3)n2)cc1", "note": "(configuration not stated)", "Potency": "inconclusive: 79.4 µM [inhibitor, partial curve, poor fit]"}
{"smiles": "COc1ccc(CN2CC3(CCN(C(=O)Nc4cccc(C(F)(F)F)c4)CC3)C2=O)cc1", "Potency": "inconclusive: 79.4 µM [inhibitor, partial curve, poor fit]"}
{"smiles": "O=C1CC2(CCN([S+](=O)([O-])c3ccccc3)CC2)Oc2ccccc2N1", "Potency": "inconclusive: 79.4 µM [inhibitor, partial curve, poor fit]"}
{"smiles": "Cc1ccccc1-c1nn(-c2ccc(F)cc2F)cc1CN1CCC[C@@H]1C(N)=O", "Potency": "inconclusive: 89.1 µM [inhibitor, partial curve]"}
{"smiles": "O=C(C1CCOC1)N1CCC2(CC1)NCCc1c2[nH]c2ccccc12", "note": "(configuration not stated)", "Potency": "inactive"}
{"smiles": "COCc1nc2nc(-c3ccccc3)c(Nc3ccc(F)c(OC)c3)cc2n1C", "Potency": "inconclusive: 126 µM [inhibitor, partial curve, poor fit]"}
{"smiles": "Cc1cc(F)cc(CN2CCOc3cc([S+](N)(=O)[O-])ccc3C2)c1", "Potency": "inconclusive: 100 µM [inhibitor, partial curve]"}
{"smiles": "O=C(NC1CCN(Cc2cccc(-c3ccc(F)c(F)c3)c2)CC1)c1ccccc1F", "Potency": "active: 79.4 µM"}
{"smiles": "CCn1nc(C(C)C)cc1C(=O)NCc1cccnc1N1CCN(C)CC1", "Potency": "inactive"}
{"smiles": "Cn1cc(CN2C[C@@H](CO)[C@H](NC(=O)C3CCC3)C2)c2ccccc21", "Potency": "inactive"}
{"smiles": "COc1ccc(-c2cc(N3CCCN(C(=O)c4ccc(OC)cc4C)CC3)n[nH]2)cc1", "Potency": "inconclusive: 28.2 µM [inhibitor, partial curve, poor fit]"}
{"smiles": "CCN1c2cc(C(=O)Nc3ccc(C(N)=O)cc3)ccc2C(=O)N2CCCCCC21", "note": "(configuration not stated)", "Potency": "inconclusive: 50.1 µM [inhibitor, partial curve, poor fit]"}
{"smiles": "O=C(NC[C@H]1Cn2c(-c3ccccc3)cnc2CO1)C1CCCC1", "Potency": "inactive"}
{"smiles": "CCc1cccc(NC(=O)CN2C(=O)NC(c3ccc(C)cc3)C3=C2COC3=O)c1", "note": "(configuration not stated)", "Potency": "active: 28.2 µM"}
{"smiles": "COc1cccc(-c2ncc3c(n2)OCCN(Cc2ccccc2)C3=O)c1", "Potency": "inconclusive: 70.8 µM [inhibitor, partial curve]"}
{"smiles": "COCCOc1ccc(-c2noc([C@@H]3CCCN3Cc3cccnc3)n2)cn1", "Potency": "inconclusive: 89.1 µM [inhibitor, partial curve]"}
{"smiles": "CCOc1ccc(C(=O)NC2CCN(c3cc(-c4ccc(OC)cc4)[nH]n3)C2)cc1", "note": "(configuration not stated)", "Potency": "inconclusive: 56.2 µM [inhibitor, partial curve, poor fit]"}
{"smiles": "CCc1cn(C[C@H](NCC(C)(C)C)C(=O)O)c(=O)[nH]c1=O", "Potency": "inactive"}
{"smiles": "O=C(NCC1CC1)c1cccc(OC2CN(Cc3ccc(F)cc3F)C2)c1", "Potency": "inconclusive: 50.1 µM [inhibitor, partial curve, poor fit]"}
{"smiles": "COc1ncccc1-c1cc(C(=O)N2CCC(OC)CC2)c2c(c1)ncn2C", "Potency": "inactive"}
{"smiles": "CC(=O)N[C@H]1CC[C@]2(C)CCC([C@H](C)C(=O)N3CCC(C)CC3)[C@H](O)[C@H]2[C@@H]1C", "note": "(some centres not stated)", "Potency": "inactive"}
{"smiles": "O=C(NC1CC1)c1cn2cc(-c3cccc(C(F)(F)F)c3)sc2n1", "Potency": "inconclusive: 35.5 µM [inhibitor, partial curve]"}
{"smiles": "O=C(Nc1ccccc1Cl)N1CCC(n2cc(C3CCCC3)nn2)CC1", "Potency": "inconclusive: 35.5 µM [inhibitor, partial curve, poor fit]"}
{"smiles": "COCC(=O)N1CCCC1C(=O)N1CCC(c2ccccc2)CC1", "note": "(configuration not stated)", "Potency": "inactive"}
{"smiles": "CC(C)C(=O)N1CCCCCCNC(=O)[C@@H]2CCCC[C@@H]21", "Potency": "inactive"}
{"smiles": "Cc1ccccc1C(=O)NC1CCN(c2ccc3nnc(C)n3n2)CC1", "Potency": "inactive"}
{"smiles": "Cc1cc(C(=O)NCC23CCC=C2N(C)C(=O)CC3)n(C)n1", "note": "(configuration not stated)", "Potency": "inactive"}
{"smiles": "CSc1ccc(-c2cccc(C(=O)NCC(=O)NCC(C)C)c2)cc1", "Potency": "inactive"}
{"smiles": "CN(Cc1ccco1)C(=O)Cc1cccn1-c1cccc(Cl)c1", "Potency": "inconclusive: 79.4 µM [inhibitor, single point]"}
{"smiles": "COCCNC(=O)C1CCCN1C(=O)c1cccc(-c2cccc(OC)c2)c1", "note": "(configuration not stated)", "Potency": "inconclusive: 79.4 µM [inhibitor, single point]"}
{"smiles": "COc1ccccc1CN(Cc1ccccc1C)C(=O)[C@H]1CCC[C@H](O)C1", "Potency": "active: 22.4 µM"}
{"smiles": "O=C(NCc1ccc(Cl)nc1)c1cn2c(n1)CN([S+](=O)([O-])c1cccc(C(F)(F)F)c1)CC2", "Potency": "inactive"}
{"smiles": "O=C(NC1CC1)[C@@H]1CCCN1c1nccc(Nc2ccccc2Cl)n1", "Potency": "inconclusive: 89.1 µM [inhibitor, single point]"}
{"smiles": "O=C(C1CCCN1Cc1ccc(-c2cncnc2)cc1)N1CCC(Cc2ccccc2)CC1", "note": "(configuration not stated)", "Potency": "inconclusive: 50.1 µM [inhibitor, partial curve, poor fit]"}
{"smiles": "CCC1Oc2ccc(NC(=O)COc3ccccc3)cc2CN(Cc2cccc(OC)c2)C1=O", "note": "(configuration not stated)", "Potency": "active: 44.7 µM"}
{"smiles": "COCCOC1CCOC2(CCN(C(=O)Nc3ccccc3F)CC2)C1", "note": "(configuration not stated)", "Potency": "inactive"}
{"smiles": "COc1ccc(-n2nc(C3CCN(C(=O)c4ccc(C(F)(F)F)cc4)CC3)[nH]c2=O)cc1", "Potency": "inactive"}
{"smiles": "Cc1cccc(CN2CCC3(CC2)CC2C(=O)NCCN2C3)c1", "note": "(configuration not stated)", "Potency": "inactive"}
{"smiles": "N#Cc1cccc(C(=O)Nc2ccc([C@H]3OCC(=O)N(Cc4ccccc4)[C@@H]3CO)cc2)c1", "Potency": "inactive"}
{"smiles": "COCC1CCN(C(=O)CC(c2ccccc2)c2ccccc2C)CC1", "note": "(configuration not stated)", "Potency": "inconclusive: 56.2 µM [inhibitor, partial curve, poor fit]"}
{"smiles": "CC1(C(=O)NCc2ccncc2)CCCc2cnc(Nc3ccccc3F)nc21", "note": "(configuration not stated)", "Potency": "inconclusive: 100 µM [inhibitor, partial curve, poor fit]"}
{"smiles": "O=C(c1cccnc1OC1CCN(S(=O)(=O)Cc2ccccc2)C1)N1CCOCC1", "note": "(configuration not stated)", "Potency": "inconclusive: 89.1 µM [inhibitor, partial curve, poor fit]"}
{"smiles": "CCc1nccn1CC(=O)NC(C)c1cnn(-c2ccccc2C)c1C", "note": "(configuration not stated)", "Potency": "inconclusive: 31.6 µM [inhibitor, full curve, poor fit]"}
{"smiles": "O=C(c1ccc2c(c1)OCO2)N1CCCC2(C1)NC(=O)N(Cc1ccc(Cl)cc1)C2=O", "note": "(configuration not stated)", "Potency": "inconclusive: 89.1 µM [inhibitor, single point]"}
{"smiles": "Cc1nn(-c2ccccc2)c2c1C(C(C)C)N(C1CCN(C(=O)c3ccc(Cl)nc3)C1)C2=O", "note": "(configuration not stated)", "Potency": "inconclusive: 89.1 µM [inhibitor, partial curve, poor fit]"}
{"smiles": "O=C(NCCc1noc(C2CC2)n1)Nc1ccc(C(F)(F)F)cc1", "Potency": "inconclusive: 50.1 µM [inhibitor, partial curve, poor fit]"}
{"smiles": "COc1cccc(-c2ccc(C(=O)N3CCC(N[S+](=O)([O-])c4ccc(C)cc4)CC3)cc2)c1", "Potency": "active: 11.2 µM"}
{"smiles": "CC(C)c1noc(-c2cn(C3CCCN(C(=O)c4ccc(F)cc4Cl)C3)nn2)n1", "note": "(configuration not stated)", "Potency": "inconclusive: 35.5 µM [inhibitor, partial curve]"}
{"smiles": "O=C(c1ccc(Cl)cc1)N1CC2(CCN(CC3CC3)C2)Cc2ccccc21", "note": "(configuration not stated)", "Potency": "inconclusive: 50.1 µM [inhibitor, partial curve, poor fit]"}
{"smiles": "Cc1nc(CN2CCN(C(C(=O)O)c3cc4ccccc4o3)CC2)cs1", "note": "(configuration not stated)", "Potency": "inactive"}
{"smiles": "Cc1noc(-c2ccc3c(c2)OCO3)c1C(=O)NCCSCc1ccccc1", "Potency": "inconclusive: 89.1 µM [inhibitor, single point]"}
{"smiles": "CN(Cc1cccn1C)[S+](=O)([O-])c1cccc(C(F)(F)F)c1", "Potency": "inactive"}
{"smiles": "CCOC(=O)[C@@H]1CN(C(=O)C2CCCCC2)[C@H]2c3ccc(OC)cc3O[C@@H]12", "Potency": "inconclusive: 89.1 µM [inhibitor, single point]"}
{"smiles": "Cc1nc(CCN(C)C(=O)C2C3C(=O)N(C4CCCCCC4)C[C@@]34C=C[C@@H]2O4)no1", "note": "(some centres not stated)", "Potency": "inactive"}
{"smiles": "N#CC1CCN(C(=O)c2nc(-c3cccc(C(F)(F)F)c3)c3ccccn23)CC1", "Potency": "inconclusive: 56.2 µM [inhibitor, partial curve, poor fit]"}
{"smiles": "CC(C)(C)c1ccc(CN2CC3(COCC2=O)CN(c2ccccc2)C3)cc1", "Potency": "inconclusive: 100 µM [inhibitor, partial curve, poor fit]"}
{"smiles": "COc1ccc(-c2nc(C)nc3c2CCN(Cc2cncs2)CC3)cc1", "Potency": "inactive"}
{"smiles": "O=C(Cn1c(=O)oc2ccccc21)N1CCC2(CC1)NCCc1c2[nH]c2ccccc12", "Potency": "inconclusive: 25.1 µM [inhibitor, partial curve, poor fit]"}
{"smiles": "CN(C)Cc1cn2c(=O)n(C)cc(-c3ccccc3Oc3ccccc3)c2n1", "Potency": "inconclusive: 112 µM [inhibitor, partial curve, poor fit]"}
{"smiles": "O=C(c1cn2cc(-c3cccc(C(F)(F)F)c3)sc2n1)N1CCCCC1", "Potency": "inactive"}
{"smiles": "Cc1cccc(-c2cccc(CN3CCC(NC(=O)Nc4ccc(Cl)cc4)CC3)c2)c1", "Potency": "active: 6.31 µM"}
{"smiles": "Cc1ccncc1C(=O)NCC(=O)N1CCCCCNC(=O)CC1c1ccccc1", "note": "(configuration not stated)", "Potency": "inactive"}
{"smiles": "O=c1n(-c2ccncc2)nc2n1CCN(Cc1ccsc1)C2", "Potency": "inconclusive: 63.1 µM [inhibitor, partial curve, poor fit]"}
{"smiles": "CCOc1ccccc1C1NC(=O)N(CC(=O)Nc2ccc(C)c(F)c2)C2=C1C(=O)OC2", "note": "(configuration not stated)", "Potency": "inconclusive: 56.2 µM [inhibitor, partial curve, poor fit]"}
{"smiles": "COc1ccc(N2CCN(C3CCCN(CC=C(C)C)C3)CC2)cc1", "note": "(configuration not stated)", "Potency": "inactive"}
